From the supplement of paper PMC11125491
± gives the standard deviation of the averaged measurements. Growth of baker's yeast expressing single-residue variants of Pneumocystis jirovecii dihydrofolate reductase in 8.8 or 44 µM methotrexate (about 75% and 90% inhibition of the wild type). Selection coefficient per generation; 0 = like wild type, above 0 = less sensitive, below 0 = more sensitive or loss of function. No active / inactive call per row; the paper calls resistant above 0.220 (8.8 µM) or 0.243 (44 µM) together with a significance test. At 44 µM about 15% of codons end with one read or none, so the lowest values are floors (replicate rank correlation 0.74; 0.94 at 8.8 µM).

B1: UniProt A0EPZ9; numbered along this chain (parent)
chain: MDWQKSLTLIVALTLSRGIGLKNDLPWKLKSDMMFFSRVTSGLLVTRSTGQMNVVLMGRKTWESLPAHSRPLKNRINVVISRQEVLDLGGGAYHARSLDDALALLSQIYDSTSKIQLNRVFVIGGGELCKAAMEHSRLNRIIATVIHNEVDCDVFFPIDFRSSQSCLPWRKQDHSVLEAWVGSKVPQGKINENGFIYEFEMWIRDI

Variants of: B1
Experiment: selection coefficient against synonymous wild-type codons (log2 per generation); higher = faster growth than wild type
Details: with Saccharomyces cerevisiae carrying the variant on a plasmid
Protocol: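 Pooled growth of yeast carrying single-residue variants of P. jirovecii dihydrofolate reductase (own DFR1 gene intact), two passages at 30 °C, three cultures, sequenced before and after. Codons with under 15 starting reads are left out; codons of one change are averaged.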

Variant	selection coefficient against synonymous wild-type codons (log2) (methotrexate 8.8 µM)	selection coefficient against synonymous wild-type codons (log2) (methotrexate 44 µM)
MDWQKSLTLIVALTLSRGIGLKNDLPWKLKSDMMFFSRVTSGLLVTRSTGQMNVVLMGRKTWESLPAHSRPLKNRINVVISRQEVLDLGGGAYHARSLDDALALLLQIYDSTSKIQLNRVFVIGGGELCKAAMEHSRLNRIIATVIHNEVDCDVFFPIDFRSSQSCLPWRKQDHSVLEAWVGSKVPQGKINENGFIYEFEMWIRDI [S106L]	-0.296 ± 0.04	-0.167 ± 0.13
MDWQKSLTLIVALTLSRGIGLKNDLPWKLKSDMMFFSRVTSGLLVTRSTGQMNVVLMGRKTWESLPAHSRPLKNRINVVISRQEVLDLGGGAYHARSLDDALALLMQIYDSTSKIQLNRVFVIGGGELCKAAMEHSRLNRIIATVIHNEVDCDVFFPIDFRSSQSCLPWRKQDHSVLEAWVGSKVPQGKINENGFIYEFEMWIRDI [S106M]	-0.165 ± 0.09	-0.138 ± 0.18
MDWQKSLTLIVALTLSRGIGLKNDLPWKLKSDMMFFSRVTSGLLVTRSTGQMNVVLMGRKTWESLPAHSRPLKNRINVVISRQEVLDLGGGAYHARSLDDALALLNQIYDSTSKIQLNRVFVIGGGELCKAAMEHSRLNRIIATVIHNEVDCDVFFPIDFRSSQSCLPWRKQDHSVLEAWVGSKVPQGKINENGFIYEFEMWIRDI [S106N]	-0.0481 ± 0.057	0.0319 ± 0.077
MDWQKSLTLIVALTLSRGIGLKNDLPWKLKSDMMFFSRVTSGLLVTRSTGQMNVVLMGRKTWESLPAHSRPLKNRINVVISRQEVLDLGGGAYHARSLDDALALLPQIYDSTSKIQLNRVFVIGGGELCKAAMEHSRLNRIIATVIHNEVDCDVFFPIDFRSSQSCLPWRKQDHSVLEAWVGSKVPQGKINENGFIYEFEMWIRDI [S106P]	-0.013 ± 0.04	-0.114 ± 0.11
MDWQKSLTLIVALTLSRGIGLKNDLPWKLKSDMMFFSRVTSGLLVTRSTGQMNVVLMGRKTWESLPAHSRPLKNRINVVISRQEVLDLGGGAYHARSLDDALALLQQIYDSTSKIQLNRVFVIGGGELCKAAMEHSRLNRIIATVIHNEVDCDVFFPIDFRSSQSCLPWRKQDHSVLEAWVGSKVPQGKINENGFIYEFEMWIRDI [S106Q]	0.0375 ± 0.047	0.111 ± 0.0088
MDWQKSLTLIVALTLSRGIGLKNDLPWKLKSDMMFFSRVTSGLLVTRSTGQMNVVLMGRKTWESLPAHSRPLKNRINVVISRQEVLDLGGGAYHARSLDDALALLRQIYDSTSKIQLNRVFVIGGGELCKAAMEHSRLNRIIATVIHNEVDCDVFFPIDFRSSQSCLPWRKQDHSVLEAWVGSKVPQGKINENGFIYEFEMWIRDI [S106R]	-0.0913 ± 0.064	-0.117 ± 0.11
MDWQKSLTLIVALTLSRGIGLKNDLPWKLKSDMMFFSRVTSGLLVTRSTGQMNVVLMGRKTWESLPAHSRPLKNRINVVISRQEVLDLGGGAYHARSLDDALALLTQIYDSTSKIQLNRVFVIGGGELCKAAMEHSRLNRIIATVIHNEVDCDVFFPIDFRSSQSCLPWRKQDHSVLEAWVGSKVPQGKINENGFIYEFEMWIRDI [S106T]	-0.102 ± 0.12	-0.0226 ± 0.089
MDWQKSLTLIVALTLSRGIGLKNDLPWKLKSDMMFFSRVTSGLLVTRSTGQMNVVLMGRKTWESLPAHSRPLKNRINVVISRQEVLDLGGGAYHARSLDDALALLVQIYDSTSKIQLNRVFVIGGGELCKAAMEHSRLNRIIATVIHNEVDCDVFFPIDFRSSQSCLPWRKQDHSVLEAWVGSKVPQGKINENGFIYEFEMWIRDI [S106V]	-0.281 ± 0.066	-0.0982 ± 0.21
MDWQKSLTLIVALTLSRGIGLKNDLPWKLKSDMMFFSRVTSGLLVTRSTGQMNVVLMGRKTWESLPAHSRPLKNRINVVISRQEVLDLGGGAYHARSLDDALALLWQIYDSTSKIQLNRVFVIGGGELCKAAMEHSRLNRIIATVIHNEVDCDVFFPIDFRSSQSCLPWRKQDHSVLEAWVGSKVPQGKINENGFIYEFEMWIRDI [S106W]	-0.275 ± 0.015	0.0866 ± 0.14
MDWQKSLTLIVALTLSRGIGLKNDLPWKLKSDMMFFSRVTSGLLVTRSTGQMNVVLMGRKTWESLPAHSRPLKNRINVVISRQEVLDLGGGAYHARSLDDALALLYQIYDSTSKIQLNRVFVIGGGELCKAAMEHSRLNRIIATVIHNEVDCDVFFPIDFRSSQSCLPWRKQDHSVLEAWVGSKVPQGKINENGFIYEFEMWIRDI [S106Y]	-0.187 ± 0.051	-0.0769 ± 0.096
MDWQKSLTLIVALTLSRGIGLKNDLPWKLKSDMMFFSRVTSGLLVTRSTGQMNVVLMGRKTWESLPAHSRPLKNRINVVISRQEVLDLGGGAYHARSLDDALALLSAIYDSTSKIQLNRVFVIGGGELCKAAMEHSRLNRIIATVIHNEVDCDVFFPIDFRSSQSCLPWRKQDHSVLEAWVGSKVPQGKINENGFIYEFEMWIRDI [Q107A]	-0.184 ± 0.061	-0.128 ± 0.16
MDWQKSLTLIVALTLSRGIGLKNDLPWKLKSDMMFFSRVTSGLLVTRSTGQMNVVLMGRKTWESLPAHSRPLKNRINVVISRQEVLDLGGGAYHARSLDDALALLSCIYDSTSKIQLNRVFVIGGGELCKAAMEHSRLNRIIATVIHNEVDCDVFFPIDFRSSQSCLPWRKQDHSVLEAWVGSKVPQGKINENGFIYEFEMWIRDI [Q107C]	-0.132 ± 0.057	-0.116 ± 0.054
MDWQKSLTLIVALTLSRGIGLKNDLPWKLKSDMMFFSRVTSGLLVTRSTGQMNVVLMGRKTWESLPAHSRPLKNRINVVISRQEVLDLGGGAYHARSLDDALALLSDIYDSTSKIQLNRVFVIGGGELCKAAMEHSRLNRIIATVIHNEVDCDVFFPIDFRSSQSCLPWRKQDHSVLEAWVGSKVPQGKINENGFIYEFEMWIRDI [Q107D]	-0.0451 ± 0.035	0.0265 ± 0.08
MDWQKSLTLIVALTLSRGIGLKNDLPWKLKSDMMFFSRVTSGLLVTRSTGQMNVVLMGRKTWESLPAHSRPLKNRINVVISRQEVLDLGGGAYHARSLDDALALLSEIYDSTSKIQLNRVFVIGGGELCKAAMEHSRLNRIIATVIHNEVDCDVFFPIDFRSSQSCLPWRKQDHSVLEAWVGSKVPQGKINENGFIYEFEMWIRDI [Q107E]	0.00318 ± 0.032	0.0157 ± 0.049
MDWQKSLTLIVALTLSRGIGLKNDLPWKLKSDMMFFSRVTSGLLVTRSTGQMNVVLMGRKTWESLPAHSRPLKNRINVVISRQEVLDLGGGAYHARSLDDALALLSGIYDSTSKIQLNRVFVIGGGELCKAAMEHSRLNRIIATVIHNEVDCDVFFPIDFRSSQSCLPWRKQDHSVLEAWVGSKVPQGKINENGFIYEFEMWIRDI [Q107G]	-0.12 ± 0.044	-0.116 ± 0.082
